Experimental data as given in article PMC5432255.
Results are given in words; binding and its absence hold for the method and conditions named. In cells and extracts the contact can be indirect. Some binding calls cover weakened binding; strength is not graded here.

Chains of the proteins cited; added tags and fusions are not shown.
UniProt P54274: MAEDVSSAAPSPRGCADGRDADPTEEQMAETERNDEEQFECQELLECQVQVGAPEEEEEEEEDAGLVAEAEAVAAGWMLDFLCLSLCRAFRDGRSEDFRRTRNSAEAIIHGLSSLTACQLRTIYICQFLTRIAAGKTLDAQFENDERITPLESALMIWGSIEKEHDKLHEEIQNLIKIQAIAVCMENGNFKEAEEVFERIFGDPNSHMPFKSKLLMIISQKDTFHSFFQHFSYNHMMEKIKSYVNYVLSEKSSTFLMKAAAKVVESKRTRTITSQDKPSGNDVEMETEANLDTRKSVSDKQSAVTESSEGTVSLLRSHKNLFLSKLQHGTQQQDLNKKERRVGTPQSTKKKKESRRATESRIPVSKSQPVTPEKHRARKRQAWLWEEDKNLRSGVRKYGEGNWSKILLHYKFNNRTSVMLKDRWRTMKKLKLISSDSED
UniProt Q15554: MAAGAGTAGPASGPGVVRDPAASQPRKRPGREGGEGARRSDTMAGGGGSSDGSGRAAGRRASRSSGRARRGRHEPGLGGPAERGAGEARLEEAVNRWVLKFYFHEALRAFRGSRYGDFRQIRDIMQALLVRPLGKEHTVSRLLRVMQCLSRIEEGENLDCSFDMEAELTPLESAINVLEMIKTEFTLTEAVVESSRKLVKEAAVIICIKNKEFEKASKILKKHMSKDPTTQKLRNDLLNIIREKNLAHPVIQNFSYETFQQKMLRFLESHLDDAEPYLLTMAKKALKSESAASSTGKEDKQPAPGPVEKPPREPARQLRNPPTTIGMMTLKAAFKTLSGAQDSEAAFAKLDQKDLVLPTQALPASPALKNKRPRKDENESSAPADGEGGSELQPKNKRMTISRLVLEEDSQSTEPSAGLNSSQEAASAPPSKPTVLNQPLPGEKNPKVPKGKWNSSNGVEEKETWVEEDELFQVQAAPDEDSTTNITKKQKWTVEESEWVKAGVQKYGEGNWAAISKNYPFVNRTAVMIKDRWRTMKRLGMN
UniProt Q09472: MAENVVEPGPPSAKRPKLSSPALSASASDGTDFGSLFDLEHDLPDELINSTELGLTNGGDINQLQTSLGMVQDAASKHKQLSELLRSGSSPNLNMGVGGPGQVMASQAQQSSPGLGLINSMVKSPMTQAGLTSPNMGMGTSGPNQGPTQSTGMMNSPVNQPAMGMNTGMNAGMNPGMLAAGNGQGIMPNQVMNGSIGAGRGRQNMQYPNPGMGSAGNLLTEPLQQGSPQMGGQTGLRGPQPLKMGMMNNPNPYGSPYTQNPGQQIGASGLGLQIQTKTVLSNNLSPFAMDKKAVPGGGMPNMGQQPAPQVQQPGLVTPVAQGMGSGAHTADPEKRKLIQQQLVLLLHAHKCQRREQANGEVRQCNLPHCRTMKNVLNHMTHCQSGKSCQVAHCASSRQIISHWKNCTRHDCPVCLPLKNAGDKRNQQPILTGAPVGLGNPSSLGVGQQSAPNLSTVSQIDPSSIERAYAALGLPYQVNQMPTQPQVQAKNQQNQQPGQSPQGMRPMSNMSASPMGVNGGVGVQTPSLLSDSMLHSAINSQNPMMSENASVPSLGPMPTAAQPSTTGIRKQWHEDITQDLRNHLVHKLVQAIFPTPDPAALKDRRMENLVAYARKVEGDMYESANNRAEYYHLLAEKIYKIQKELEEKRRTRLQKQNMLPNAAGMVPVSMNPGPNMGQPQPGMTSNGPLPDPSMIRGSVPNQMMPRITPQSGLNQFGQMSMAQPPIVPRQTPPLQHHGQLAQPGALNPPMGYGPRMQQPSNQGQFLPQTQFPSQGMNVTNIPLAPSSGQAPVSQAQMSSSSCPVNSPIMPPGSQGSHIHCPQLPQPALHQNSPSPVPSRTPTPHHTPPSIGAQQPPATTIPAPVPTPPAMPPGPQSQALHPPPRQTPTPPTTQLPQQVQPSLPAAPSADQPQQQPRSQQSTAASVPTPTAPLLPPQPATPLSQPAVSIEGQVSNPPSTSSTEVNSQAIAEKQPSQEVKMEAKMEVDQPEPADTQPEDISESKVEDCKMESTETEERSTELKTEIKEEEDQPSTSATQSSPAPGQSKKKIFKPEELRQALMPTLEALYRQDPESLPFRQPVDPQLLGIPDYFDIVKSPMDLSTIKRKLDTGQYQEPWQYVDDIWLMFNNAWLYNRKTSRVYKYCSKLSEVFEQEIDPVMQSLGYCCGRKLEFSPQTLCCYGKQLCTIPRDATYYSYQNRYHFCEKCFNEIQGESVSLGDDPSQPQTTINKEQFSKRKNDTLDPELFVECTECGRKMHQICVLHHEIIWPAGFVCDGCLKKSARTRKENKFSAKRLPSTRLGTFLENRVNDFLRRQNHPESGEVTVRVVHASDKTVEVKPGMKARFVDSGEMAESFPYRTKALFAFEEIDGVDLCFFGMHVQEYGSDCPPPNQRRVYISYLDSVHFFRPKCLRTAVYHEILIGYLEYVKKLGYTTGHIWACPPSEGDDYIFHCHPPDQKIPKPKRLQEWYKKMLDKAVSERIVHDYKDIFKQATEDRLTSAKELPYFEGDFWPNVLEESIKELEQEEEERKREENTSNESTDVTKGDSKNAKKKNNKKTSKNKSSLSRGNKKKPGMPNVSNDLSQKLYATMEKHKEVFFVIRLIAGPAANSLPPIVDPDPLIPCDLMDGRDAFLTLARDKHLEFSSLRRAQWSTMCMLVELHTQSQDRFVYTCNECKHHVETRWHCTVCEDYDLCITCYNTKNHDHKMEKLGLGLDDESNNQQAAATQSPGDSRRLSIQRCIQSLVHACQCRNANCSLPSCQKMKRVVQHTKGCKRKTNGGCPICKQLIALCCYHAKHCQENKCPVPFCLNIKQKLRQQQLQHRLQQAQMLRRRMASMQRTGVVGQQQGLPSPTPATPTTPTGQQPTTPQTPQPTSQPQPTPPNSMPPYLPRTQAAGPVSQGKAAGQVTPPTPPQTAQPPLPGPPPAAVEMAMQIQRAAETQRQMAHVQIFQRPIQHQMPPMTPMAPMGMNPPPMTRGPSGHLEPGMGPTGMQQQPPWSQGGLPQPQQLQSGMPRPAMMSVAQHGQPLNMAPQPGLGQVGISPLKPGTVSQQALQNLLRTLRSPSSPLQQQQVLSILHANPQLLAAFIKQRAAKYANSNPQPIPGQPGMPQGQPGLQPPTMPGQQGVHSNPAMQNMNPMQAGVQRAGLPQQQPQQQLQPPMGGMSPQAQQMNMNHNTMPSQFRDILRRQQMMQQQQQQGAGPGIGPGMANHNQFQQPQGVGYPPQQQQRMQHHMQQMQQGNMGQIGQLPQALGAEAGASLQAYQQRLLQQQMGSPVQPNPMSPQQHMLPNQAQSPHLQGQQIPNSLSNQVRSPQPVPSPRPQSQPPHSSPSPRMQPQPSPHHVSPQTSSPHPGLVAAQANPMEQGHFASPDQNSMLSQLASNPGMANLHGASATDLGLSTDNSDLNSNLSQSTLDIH
UniProt Q92830: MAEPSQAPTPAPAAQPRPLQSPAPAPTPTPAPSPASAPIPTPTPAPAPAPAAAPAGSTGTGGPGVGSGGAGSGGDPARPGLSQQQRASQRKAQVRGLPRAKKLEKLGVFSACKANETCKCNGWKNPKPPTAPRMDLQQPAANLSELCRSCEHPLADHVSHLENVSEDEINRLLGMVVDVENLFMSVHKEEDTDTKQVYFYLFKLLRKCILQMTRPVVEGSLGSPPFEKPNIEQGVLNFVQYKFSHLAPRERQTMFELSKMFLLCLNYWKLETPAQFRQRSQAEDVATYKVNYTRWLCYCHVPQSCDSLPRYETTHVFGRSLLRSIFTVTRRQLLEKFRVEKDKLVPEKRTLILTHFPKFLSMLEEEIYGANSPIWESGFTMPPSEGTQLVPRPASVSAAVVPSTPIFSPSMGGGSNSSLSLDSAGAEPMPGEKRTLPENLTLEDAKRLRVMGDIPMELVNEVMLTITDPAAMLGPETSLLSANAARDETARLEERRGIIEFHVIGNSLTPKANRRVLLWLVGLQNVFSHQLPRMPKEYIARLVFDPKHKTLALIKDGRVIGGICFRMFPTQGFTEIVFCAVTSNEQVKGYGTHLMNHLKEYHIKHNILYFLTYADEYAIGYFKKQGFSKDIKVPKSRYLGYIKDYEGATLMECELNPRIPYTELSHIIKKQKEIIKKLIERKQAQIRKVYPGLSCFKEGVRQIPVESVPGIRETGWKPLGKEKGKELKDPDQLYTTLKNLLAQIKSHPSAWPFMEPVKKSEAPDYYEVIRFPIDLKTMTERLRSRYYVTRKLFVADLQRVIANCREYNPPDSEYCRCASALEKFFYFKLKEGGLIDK
UniProt Q92831: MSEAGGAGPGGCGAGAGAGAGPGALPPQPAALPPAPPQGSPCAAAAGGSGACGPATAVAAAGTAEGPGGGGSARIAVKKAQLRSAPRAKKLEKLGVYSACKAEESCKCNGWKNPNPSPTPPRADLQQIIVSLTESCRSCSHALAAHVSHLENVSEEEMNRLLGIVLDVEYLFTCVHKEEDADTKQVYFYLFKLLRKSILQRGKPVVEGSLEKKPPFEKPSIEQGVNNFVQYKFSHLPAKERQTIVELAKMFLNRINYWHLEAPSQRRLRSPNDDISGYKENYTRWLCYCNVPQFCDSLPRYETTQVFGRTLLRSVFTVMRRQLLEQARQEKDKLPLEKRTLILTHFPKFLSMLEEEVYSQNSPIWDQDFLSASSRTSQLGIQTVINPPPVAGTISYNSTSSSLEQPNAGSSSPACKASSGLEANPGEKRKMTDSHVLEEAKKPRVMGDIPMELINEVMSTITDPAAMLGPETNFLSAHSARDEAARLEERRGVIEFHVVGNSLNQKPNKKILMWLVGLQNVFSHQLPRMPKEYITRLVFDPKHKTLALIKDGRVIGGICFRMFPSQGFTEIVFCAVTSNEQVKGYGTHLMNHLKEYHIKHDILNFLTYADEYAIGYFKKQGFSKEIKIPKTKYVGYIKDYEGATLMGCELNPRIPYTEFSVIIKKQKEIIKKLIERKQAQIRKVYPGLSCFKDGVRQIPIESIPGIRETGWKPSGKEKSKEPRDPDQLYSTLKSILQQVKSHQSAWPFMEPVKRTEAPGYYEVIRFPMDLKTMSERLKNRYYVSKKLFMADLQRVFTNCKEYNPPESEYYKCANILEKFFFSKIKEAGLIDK

Columns and labels:
Assay in all cases: proximity ligation; in situ PLA (Duolink II) on fixed, permeabilised telomerase-positive (TG1N, HeLa) and ALT (SAOS-2, TG20) cells with two primary antibodies against the endogenous proteins; for the TRF1 pairs cells treated or not with the proteasome inhibitor MG132 1.5 h before fixation
[1] = target: TRF1 (human (endogenous in TG1N, HeLa, SAOS-2, TG20)) (UniProt P54274)
[2] = target: TRF2 (human (endogenous in TG1N, HeLa, SAOS-2, TG20)) (UniProt Q15554)
[3] = target: P300 (human (endogenous in TG1N, HeLa, SAOS-2, TG20)) (UniProt Q09472)

Row | Substance | binding [1] | binding [2] | binding [3]
1 | General control non-derepressible 5 (GCN5) (from UniProt Q92830 1-837) | binds | binds | –
2 | P300/CBP-associated factor (PCAF) (from UniProt Q92831 1-832) | no binding | no binding | binds
